Publication PMC3174244
No constants are given. Whether binding was seen depends on the method and setting. For some assays here: Binding seen in cells or lysates may run through a third protein. Some binding calls cover weakened binding; strength is not graded here. For some assays here: Tags and fused reporters may be left off the sequences shown.

Assays:
[1] = molecular target: GST linked to the C-terminal 594-775 amino acids of ICP0 (GST-E52) (herpes simplex virus type-1 (HSV-1)) (UniProt P08393); assay: pull-down; only the target purified
[2] = molecular target: SUMO-2, GAL4 DNA binding domain fusion (UniProt P61956); assay: two-hybrid
[3] = molecular target: SUMO-3, GAL4 DNA binding domain fusion (UniProt P55854); assay: two-hybrid
[4] = molecular target: SUMO-1, GAL4 DNA binding domain fusion (UniProt P63165); assay: two-hybrid
[5] = molecular target: T1, pp71, GAL4 DNA binding domain fusion (UniProt P06726); assay: two-hybrid
T1 sequence: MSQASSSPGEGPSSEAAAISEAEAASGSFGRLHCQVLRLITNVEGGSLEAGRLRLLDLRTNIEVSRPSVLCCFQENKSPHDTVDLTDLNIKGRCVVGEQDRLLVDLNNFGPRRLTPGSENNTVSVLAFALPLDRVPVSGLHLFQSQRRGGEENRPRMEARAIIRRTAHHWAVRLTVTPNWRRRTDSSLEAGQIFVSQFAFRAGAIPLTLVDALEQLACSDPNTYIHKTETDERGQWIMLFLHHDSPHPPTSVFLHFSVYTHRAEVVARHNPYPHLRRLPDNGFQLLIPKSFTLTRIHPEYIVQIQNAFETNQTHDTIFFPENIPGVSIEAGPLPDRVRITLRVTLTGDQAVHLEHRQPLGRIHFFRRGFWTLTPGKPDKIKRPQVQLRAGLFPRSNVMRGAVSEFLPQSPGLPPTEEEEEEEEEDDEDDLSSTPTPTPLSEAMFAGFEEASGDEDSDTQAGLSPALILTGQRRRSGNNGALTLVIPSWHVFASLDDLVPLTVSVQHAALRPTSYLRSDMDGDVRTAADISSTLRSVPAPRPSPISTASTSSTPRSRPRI

His-tagged SUMO-1 (from UniProt P63165 1-97)
binding [1]: binds

His-tagged SUMO-2 (from UniProt P61956 1-95)
binding [1]: no binding

ICP0.1–388, GAL4 activation domain fusion (from UniProt P08393 1-388) (domain or fragment)
binding [2]: binds
binding [3]: binds

ICP0.1–775 (wt ICP0), GAL4 activation domain fusion (from UniProt P08393 1-775)
binding [4]: no binding
binding [2]: binds
binding [3]: binds

hDaxx, GAL4 activation domain fusion (from UniProt Q9UER7 1-740)
binding [5]: binds
